Among the data in paper PMC11444770, “Moesin contributes to heat shock gene response through direct binding to the Med15 subunit of the Mediator complex in the nucleus” (Open Biology, 2024) are binding values, retold here.

Chains of the proteins cited; added tags and fusions are not shown. Lines headed by an entry give the natural chain unless they say otherwise; changes in a name come on top. Residues count along the entry.
UniProt P46150: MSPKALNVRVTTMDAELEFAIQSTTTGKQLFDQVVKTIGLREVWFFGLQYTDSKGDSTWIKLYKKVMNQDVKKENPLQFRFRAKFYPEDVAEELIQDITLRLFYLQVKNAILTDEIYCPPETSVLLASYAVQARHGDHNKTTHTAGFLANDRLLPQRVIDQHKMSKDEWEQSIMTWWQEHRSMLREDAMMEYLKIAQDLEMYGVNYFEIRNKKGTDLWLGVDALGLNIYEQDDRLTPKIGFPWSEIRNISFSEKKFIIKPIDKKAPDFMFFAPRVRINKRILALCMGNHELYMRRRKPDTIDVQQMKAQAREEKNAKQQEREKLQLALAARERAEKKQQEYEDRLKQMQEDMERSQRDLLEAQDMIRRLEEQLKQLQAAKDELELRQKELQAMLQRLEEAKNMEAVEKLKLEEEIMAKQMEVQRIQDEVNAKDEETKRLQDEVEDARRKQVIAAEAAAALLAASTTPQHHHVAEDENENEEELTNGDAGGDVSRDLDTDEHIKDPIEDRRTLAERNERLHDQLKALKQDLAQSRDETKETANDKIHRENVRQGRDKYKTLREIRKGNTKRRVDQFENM
GST-FERM-Moesin: residues 1-484 of P46150
UniProt Q96RN5: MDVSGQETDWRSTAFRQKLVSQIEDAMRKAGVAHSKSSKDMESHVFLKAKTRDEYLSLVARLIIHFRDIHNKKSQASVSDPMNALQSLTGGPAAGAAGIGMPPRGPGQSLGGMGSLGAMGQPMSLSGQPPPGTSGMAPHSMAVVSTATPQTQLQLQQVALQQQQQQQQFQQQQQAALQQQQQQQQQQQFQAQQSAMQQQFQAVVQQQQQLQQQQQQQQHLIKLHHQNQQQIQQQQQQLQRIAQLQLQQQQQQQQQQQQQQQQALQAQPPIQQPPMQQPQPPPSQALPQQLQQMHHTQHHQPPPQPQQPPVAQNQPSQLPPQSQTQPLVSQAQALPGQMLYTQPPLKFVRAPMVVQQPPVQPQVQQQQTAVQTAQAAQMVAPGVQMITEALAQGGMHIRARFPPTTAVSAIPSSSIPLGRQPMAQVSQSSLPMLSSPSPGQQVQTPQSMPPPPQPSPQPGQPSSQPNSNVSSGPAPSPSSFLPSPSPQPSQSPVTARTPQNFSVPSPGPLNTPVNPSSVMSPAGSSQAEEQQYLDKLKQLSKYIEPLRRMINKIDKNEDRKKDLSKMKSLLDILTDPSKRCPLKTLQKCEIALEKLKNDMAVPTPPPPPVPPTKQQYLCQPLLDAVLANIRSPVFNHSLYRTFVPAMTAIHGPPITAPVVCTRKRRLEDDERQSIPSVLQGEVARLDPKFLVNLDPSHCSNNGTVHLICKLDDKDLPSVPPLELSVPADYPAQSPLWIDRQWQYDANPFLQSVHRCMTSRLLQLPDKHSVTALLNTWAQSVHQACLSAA
UniProt P15311: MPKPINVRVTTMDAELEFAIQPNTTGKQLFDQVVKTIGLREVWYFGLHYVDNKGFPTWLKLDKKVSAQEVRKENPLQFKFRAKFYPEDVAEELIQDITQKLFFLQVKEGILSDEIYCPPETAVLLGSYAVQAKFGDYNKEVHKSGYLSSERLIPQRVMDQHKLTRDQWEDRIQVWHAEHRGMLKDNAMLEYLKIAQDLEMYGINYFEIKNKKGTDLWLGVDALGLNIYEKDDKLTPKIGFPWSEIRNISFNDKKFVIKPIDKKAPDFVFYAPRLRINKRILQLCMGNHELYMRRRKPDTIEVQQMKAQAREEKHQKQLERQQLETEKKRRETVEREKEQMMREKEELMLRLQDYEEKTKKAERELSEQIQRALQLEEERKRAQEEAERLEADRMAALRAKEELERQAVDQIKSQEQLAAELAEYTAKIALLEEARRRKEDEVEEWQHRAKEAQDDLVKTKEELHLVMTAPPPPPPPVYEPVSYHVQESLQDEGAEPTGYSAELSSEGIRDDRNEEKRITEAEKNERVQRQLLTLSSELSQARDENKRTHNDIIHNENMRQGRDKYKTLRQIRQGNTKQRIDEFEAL
UniProt P26038: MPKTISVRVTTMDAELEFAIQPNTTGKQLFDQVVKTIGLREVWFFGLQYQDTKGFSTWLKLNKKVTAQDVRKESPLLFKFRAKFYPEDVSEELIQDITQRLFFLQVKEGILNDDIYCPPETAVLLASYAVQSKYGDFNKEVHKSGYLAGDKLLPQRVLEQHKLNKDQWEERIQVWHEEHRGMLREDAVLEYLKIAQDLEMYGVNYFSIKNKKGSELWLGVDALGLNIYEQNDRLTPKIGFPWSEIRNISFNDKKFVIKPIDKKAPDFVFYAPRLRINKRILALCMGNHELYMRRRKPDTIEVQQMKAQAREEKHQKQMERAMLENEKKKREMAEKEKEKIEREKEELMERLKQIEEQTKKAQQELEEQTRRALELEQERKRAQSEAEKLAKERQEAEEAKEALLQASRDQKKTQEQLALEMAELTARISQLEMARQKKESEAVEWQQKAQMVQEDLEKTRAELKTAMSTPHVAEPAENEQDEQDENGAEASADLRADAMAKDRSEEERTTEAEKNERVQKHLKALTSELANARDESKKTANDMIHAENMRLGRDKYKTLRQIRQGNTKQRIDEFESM

The labels stand for the following.
B1: Med6-FLAG (protein, UniProt Q8MSX2 1-249)
chain: MASRQMTNDHLRLSWHDTQMMATLSPQTVMDYFCRKSNPFYDHMCNNETVRMQRLGPEHLHNMIGLEYILLHVAEPILYVIRKQHRHNPSEATPIADYYIIGGTVYKAPDLANVINSRILNTVVNLQSAFEEASSYARYHPNKGYTWDFSSNKVFSDRSKSDKKDANSAKDENSGTLFQKQRVDMLLAELLRKFPPPIPPMLQNLQQPPPAGDDLNTARNASEMNNATGPLDIKTEGVDMKPPPEKKSK
B2: Med15-FLAG (protein, UniProt Q9Y149 1-749)
chain: MTEDWQSQKFRQNVISKIHDLLPPNAQDQTKNAGVMENHIFRKSRTKDEYLGLVAKLFMHYKDMSRKSQQQQQQQQQQGGPPPNAEMGGGQNMMQDPLNALQNLASQGNRNPQMMPMGAGGGAPVPGGPGTASNLLQSLNQQRPGQQQMQPMSNIRGQMPMGAGGAGAQQMMQVQQMQQGGNAPGVMNVMGAGGGQNQGQIVGNPGQQMGVGVGMPNQMVGPGPNSGPAVGGAGGPNAAPGAGGPGPNQMQGGPMNVNAMQQMPPMQQIQQNQLGMGMNPMMRMGQGNGMGGPQGMPGQGMQGMPQGPHNVVGGPAGQQQVGGAGLPPNAVQQGGMNPMGGMGVNMPPNLQQKPNMPMGQAGQMFPGNRGGVGVGGQQPGQPFMRSSPSPADAQQLQQQAQLQQMQQQQQQLVVGNQTPTQQPPTPQMPTPNMIPSPALVPQSSPQMMQMQNSQRNIRQQSPSASINTPGQVTGNSPFNPQEEALYREKYKQLTKYIEPLKRMLAKISNDGTNVEKMTKMSKLLEILCNPTQRVPLETLLKCEKALEKMDLISYSGQQFGKSSNPLLEVINTTLQSPVANHTLYRTFRPTLELLFGTDITAPVPAKRPRVEEKSTSFEQEVPHVLQGEIARLDTKFKVKLDTTSQINNKAIRLICCLDDKRLPSVPPVSVSVPEEYPWQAPDCSLAEQEYSATPFLQTVQQALIARISKLPKNYSLSHLLDTWEMAVRQACSPQSKPRAVCELSTLLGV
B3: Med31 (IVTT) (protein, UniProt Q8IH24 1-204)
chain: MAKMYGKGKTAIESEELQKRRWQIELEFVQCLSNPNYLNFLAQRGFFKDQSFINYLKYLQYWKEPDYAKYLMYPMCLYFLDLLQYEHFRREIVNSQCCKFIDDQAILQWQHYTRKRIKLIENVTAAQQQQQQLQQQQQQANGMEAATGGESAAPTPNVNGSASTADSQQTSSALQPVQAQPGNPQQQQQINGVASGANIKLELN
modifications: 35S-Methionine labelled
B4: Med16 (IVTT) (protein, UniProt Q9W278 1-818)
chain: MTILYKVEGKEFSKDSVFPHKKVLCSVSARNIVAFSALQSAIFPASHGGDAGDGSLPGAGLAVGASNSHVYVCDIVTPWEYYKVCSSKSLISVLQWSPNGEQLLLGYVGGRVEIWQPRNQSINLWVLQYYATVPSEDIIEAQFFQNGKGVIFNALKKDHTYYAEKFERVEQQRPTLSGFGGVASEGCVLLTSSGLLAAFSLPAIQKTSAAGADGPAHEVVELTPALHSIGISRSFIEHCSMTPSPSGALNIAFSCGWQQQLVQCFKVSLSLEGELGLEQHLAIKSESQTSIFLGPLDGRRISHLKWTRIANEDVIFIAYACPDGAGSQLEQWTLTRRHQSVHALLQGGGGANNKPNEFVQSESWEQVGKVQLNASLADISVTRLSVSTPDSCQVYAILQDNSVQVLEPNSMKQLNHTQFDRLSDASGAVKFVSGDLTPSSQILLIFDSHAQLYAMQAPLPKQGGSGLLLLEYCIVTGCDASDVLLLNLGNLEALVEKLTDNFTRQPSFVRHFYYANFLALKSNICRMQQQEFDNLIILHAISTTFKSLLRPSDLGFQDKGPADNLAIKLAESIPDVDTVMLNLDAKDFTVEPVMLQSLQQLIQWVTDLALNMLHRLPEEVMKTKLSGKRPSYDISRDIVAISSLRELLVMIRIWGLLNTQCLPVYTKTMDNIDVLVILFRLLTRLAQNPAEPDEMLLDECSLLSKQLLIPQPTKFNPTTLLSAQGFAAVKSGQLQFTSMEEPTCLQDMETEEVVFASSVKDGVSNLQLGARPSHIRRCARCGFVFVNNASKVAKTSALKAWFSKWLHCHCGGFWKQVH
modifications: 35S-Methionine labelled
B5: Med27 (IVTT) (protein, UniProt Q9VNG0 1-293)
chain: MDKLNSTLTAVKNLRSNVRLCFEHLADGTDGESGEESRNKFVNDFQERFAAINSQIREVEQLINGLPVPPTPYSLGNTAYLAQETSQDRQALYPQLVNSYKWMDKVHDHSFLAFNNLNQNTLRRSYNYCSQKRQRLPFSSFNNDPDHIDKLLSEINTPPHTSYRIFRPFGTNAVTIVTISNVMKAAIVFKGVLIEWVTVKGFDEPLEHDDLWAESRYEVFRKVQDHAHSAMLHFFSPTLPDLAVKSYITWLNSHVKLFLEPCKRCGKFVVNGLPPTWRDLRTLEPFHEDCRNC
modifications: 35S-Methionine labelled
B6: Med22 (IVTT) (protein, UniProt Q9V439 1-143)
chain: MASGSRTTILPQSKEALLKSYNARLKDDVRSMLENFEEILKLARRESHSQISKTTQCEQDALEMQVRAANMVRAGESLMKLVADLKQYLILNDFHSVNEAITNNSQLFRNTQSECDKKLMKLRDEMAMDLYDLEEEYYTSIFK
modifications: 35S-Methionine labelled
B7: Med23 (IVTT) (protein, UniProt Q9W1X7 1-1439)
chain: METQVIDTVNEFLKVDSLDEAFVSVIVFKPNTEQERATRFANDLVTAFGNVAQENREQVLRLYLLRAAGASGYHIKVLMAALVKLVDAHVITARMLCDKVLMCEKLDFEHRTFWIESFRLIKRVIVQVDYKGVREIMKVCRDKAQWFPLNVNVTYMPQLLAVEDILRFIFDRNNCLLPAYFIANEIMRPFPYHWKLNRLMTDFVEEFRTTAQMVSIIGHASMLPIVEHFGYADHMMNSWRLDHNTLKFNFKGSLPYEPELLEEQKPLLRYVLEQPYSREMVSQMLNLQKHQKQRYNALEEQLVNLIVQAMEMTEANDATAGSGFNSSDEQITPYEWMWLHLSSQLIYFVLFQFVSFMHIVLALHEKLSKLELRKGRDQLMWILLQFISGSIQKNPITNFLPVFRLFDLLYPELEPLKLPDINKSSMVRHMAPICVWIHLMKKARVENMNITRPLPIALKNHYDFLQHLVTANTMMNMTLGNDFRIILICNAYSTNQEYFGRPMGLLLDALNGTSKSPNGGQIPAVTFSVTVLDSLTVHSKMSLIHSFVTQMLKQAQSKGQVPAAALLETYARLLVYTEIESLGIKGFLSQLMPTVFKNHAWAMLHTLMEMFSYRLHHVPTHYRVQLLSLLHSLSSVPQTNKMQLNLCFESTALRLITSIGSAEFQPQFSRYFNDKSPGAVASNESEELNRVLILTLARSMHVHGGGDEMQGWCKDFLSNIIQHTPHSWPMHSLACFPPALNEYFTQNNQPPENKQQLKKAVEEEYRTWTSMTNENDIIAHFLRPTTNPLFLCLLFKIIWETENISPVAYKILEGISARALSTHLRKFCDYLVAEVASSSDGRDFIHKCVDTINNMIWKFNVVTIDRVVLCLALRTHEGNEAQVCFLIIQLLLLKASELRNRVQEFCKDNNPDHWKQSNWQDKHLSFHQKYPEKFALDESASQIPLPVYFSNVCLRFLPVLDVVVHRFIELTITNVHQILGFILDHLSILYKFHDRPITYLYNTLHYYERILRDRPALKKKLVGAITSAFSEIRPPNWSVSEPYKVYLQSQDSLWTPELSYYMSLIRRLADTISGKNVFYSTDWRFNEFPNAPTHALYVTCVELLGLPVAPPLVASNLIDVIVSGYAVIPQKDIHSYINAVGIVLAALPEPYWSGIYDRLQDMLNTPNMLNWTYRFNAFELFNFKTVREAMLEKTYAVVLAVAHSVFHHMGAFKLAAMTRYLKEKLKPCVRTEQQLLYLCHVFGPFLQRIELEKPNAVAGIAVLLYEILEIVDKHHGPKPLQYMDQICDFLYHIKYIHVGNIIKNESEAIIKRLRPLLQMRLRFITHLNLEDIHTEKINDNTSNNAITSQTQSPMQTQHQQQPQQPHQQQQQQQQQQQQQQQQQQQQQQMQQQQINAVQTTSVPLGSGGNLQQQQQINQQQQMYMQHMQQHQHMQNMRHN
modifications: 35S-Methionine labelled
B8: Med6-CYFP (protein, UniProt Q8MSX2 1-249)
chain: MASRQMTNDHLRLSWHDTQMMATLSPQTVMDYFCRKSNPFYDHMCNNETVRMQRLGPEHLHNMIGLEYILLHVAEPILYVIRKQHRHNPSEATPIADYYIIGGTVYKAPDLANVINSRILNTVVNLQSAFEEASSYARYHPNKGYTWDFSSNKVFSDRSKSDKKDANSAKDENSGTLFQKQRVDMLLAELLRKFPPPIPPMLQNLQQPPPAGDDLNTARNASEMNNATGPLDIKTEGVDMKPPPEKKSK
B9: Med19 (split YFP control, CYFP-tagged) (protein, UniProt Q9VVL6 1-337)
chain: MMSNYGNMMDSPKSSPHGGGRSPVVARQDSSGTLKTTISLGKTPTIIHTGPFYSMKEPPAKAELTGDKDLMTEYGLHHTLTKFKEKKFKESLASFLQNIPGINDLITHPVENSTLRSVIEKPPIGGKELLPLTPVQLAGFRLHPGPLPEQYRTTYVTPARKHKNKHKKQKHKDGVTTGQESTLLDSAGLETYEKKHKKQKRHEDDKERKKRKKEKKRKKKNQSPEPGVGLLPGGASLGGAAGVMGATSLGSLGGGPGGPGLSSLSASMGPGVVGNMNSFSSSMQMQQQQQMPMQQQQMSSGGLLGSVLGTSGGPGGGGGGGGGGGGGVGGSLLMSQF
B10: 6xHis-Hsf (natural protein, Drosophila melanogaster, UniProt P22813 1-691, looked up)
chain: MSRSRSSAKAVQFKHESEEEEEDEEEQLPSRRMHSYGDAAAIGSGVPAFLAKLWRLVDDADTNRLICWTKDGQSFVIQNQAQFAKELLPLNYKHNNMASFIRQLNMYGFHKITSIDNGGLRFDRDEIEFSHPFFKRNSPFLLDQIKRKISNNKNGDDKGVLKPEAMSKILTDVKVMRGRQDNLDSRFSAMKQENEVLWREIASLRQKHAKQQQIVNKLIQFLITIVQPSRNMSGVKRHVQLMINNTPEIDRARTTSETESESGGGPVIHELREELLDEVMNPSPAGYTAASHYDQESVSPPAVERPRSNMSISSHNVDYSNQSVEDLLLQGNGTAGGNILVGGAASPMAQSVSQSPAQHDVYTVTEAPDSHVQEVPNSPPYYEEQNVLTTPMVREQEQQKRQQLKENNKLRRQAGDVILDAGDILVDSSSPKAQRTSIQHSTQPDVMVQPMIIKSEPENSSGLMDLMTPANDLYSVNFISEDMPTDIFEDALLPDGVEEAAKLDQQQKFGQSTVSSGKFASNFDVPTNSTLLDANQASTSKAAAKAQASEEEGMAVAKYSGAENGNNRDTNNSQLLRMASVDELHGHLESMQDELETLKDLLRGDGVAIDQNMLMGLFNDSDLMDNYGLSFPNDSISSEKKAPSGSELISYQPMYDLSDILDTDDGNNDQEASRRQMQTQSSVLNTPRHEL
notes: heat shock factor (Hsf), the Drosophila Hsf1 homologue; The methods say C-terminal 6xHis tagging in pDEST17, while the label 6xHis-Hsf puts the tag first; as far as I recall pDEST17 adds an N-terminal His tag; also called heat shock factor; source: E. coli, purified (HisPur Cobalt Resin or Ni-NTA beads); not shown: 6xHis, C-terminal, kept

No constants are given. Whether binding was seen depends on the method and setting. Binding seen in cells or lysates may run through a third protein. Some results given as binding are weak or reduced against the parent protein; the word gives no strength. For part of these data: Where a sequence is shown, tags or fusion partners need not be part of it.

One assay has as its target Moesin-GFP (Drosophila melanogaster) (UniProt P46150). Briefly: co-IP; lysate of S2R+ cells co-expressing Moesin-GFP and Med15-FLAG or Med6-FLAG; anti-GFP antibody, Protein G magnetic beads; Lysis Buffer 20 mM Tris pH 7.5, 200 mM NaCl, 10% glycerol, 0.5 mM EDTA, 0.5% NP-40; 4°C; western blot. (A western blot detects proteins with antibodies after separation by electrophoresis.)
In the case of B1, the binding result was “binds”.

For B2, the binding result is “binds”.

A further assay has as its target GST-FERM-Moesin (Drosophila melanogaster) (UniProt P46150). The assay can be described thus: pull-down; GST-IVTT binding assay: GST-FERM-Moesin immobilised on glutathione beads, 35S-methionine-labelled IVTT preys; 50 mM Hepes pH 7.5, 150 mM NaCl, 2 mM MgCl2, 1 mM EGTA, 1 mM DTT, 0.1% Triton X-100, 0.5 mg/ml BSA; 1.5 h at 4°C; autoradiography; only the target purified.
Turning to B3, the binding result is “no binding”.

Consider B4, for which the binding entry was “no binding”.

In the case of B5, the binding entry is listed as “no binding”.

Consider B6, for which the binding result was “no binding”.

With B7, the binding result is “no binding”.

Another assay deals with Moesin-NYFP (Drosophila melanogaster) (UniProt P46150). The assay can be described thus: split reporter; split YFP (BiFC) in living, unstressed S2R+ cells, 2 days after transfection; confocal microscopy, percent of YFP positive cells.
Consider B8, for which the binding entry is recorded as “binds”.

As to B9, the binding result is “no binding”.

Take B10: the binding entry was “binds”.

Another assay has as its target hMed15-V2 (human) (UniProt Q96RN5). Briefly: split reporter; split Venus (V1/V2) in U2OS cells, fixed 48 h after transfection; confocal and high-throughput microscopy.
Turning to hEzrin-V1 (from UniProt P15311 1-586), the binding entry was “binds”.

In the case of hMoesin-V1 (from UniProt P26038 1-577), the binding entry is reported as “binds”.
